These results are taken from PMC5836133.

This is one part of the list. At the low end of the ranking the order means little.

The experiment concerns T1, GST-NbGlk1(82-244).
T1 sequence: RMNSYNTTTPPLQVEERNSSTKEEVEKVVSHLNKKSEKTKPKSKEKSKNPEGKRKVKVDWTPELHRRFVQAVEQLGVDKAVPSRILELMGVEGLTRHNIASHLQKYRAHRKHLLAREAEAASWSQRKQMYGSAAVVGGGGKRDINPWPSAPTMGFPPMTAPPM
The experiment is described as follows: protein-binding microarray.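 Also: rank-based score ranging −0.5 to +0.5 with E above 0.45 taken as significant binding.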 As to conditions: NbGlk1 is a Golden2-like transcription factor of Nicotiana benthamiana; high values mean tight binding; most listed sequences are background and not binding sites; double strand, one strand shown.
Sequence ATGACGCC came in with a binding signal of -0.259 E-score.

Sequence AGGATACT displayed a binding signal of 0.199 E-score.

AATAAGCG: the binding signal was -0.039 E-score.

Consider ATTACTTC, for which the binding signal worked out at 0.179 E-score.

AATCCCGC registered a binding signal of 0.335 E-score.

On to ACCCCACC, for which the binding signal was -0.177 E-score.

Sequence AGGAAGGC came in with a binding signal of -0.271 E-score.

Take ACTCCATA: the binding signal is -0.00303 E-score.

On to ATAACAGG, for which the binding signal was -0.0844 E-score.

Regarding AGGCCAAA, the binding signal is -0.201 E-score.

For ATATTCTC, the binding signal was 0.402 E-score.

As for AGCTGGAA, the binding signal was -0.0711 E-score.

Take CACTAAAC: the binding signal is -0.0712 E-score.

With ACCACTTC, the binding signal was -0.16 E-score.

Consider ATCCACGA, for which the binding signal was determined as 0.28 E-score.

AGCGAGTG: the binding signal is 0.00664 E-score.

As for AAGTTCTC, the binding signal was -0.131 E-score.

In the case of ATTAGCTG, the binding signal was 0.0421 E-score.

In turn, AAAACGAT registered a binding signal of 0.0892 E-score.

ACCTACCG showed a binding signal of -0.0779 E-score.

Sequence ATACAGCC had a binding signal of -0.0585 E-score.

In turn, AGGCCGGA returned a binding signal of -0.0602 E-score.

In turn, ACGGATAC came in with a binding signal of 0.261 E-score.

As for ACCAAATG, the binding signal is 0.0403 E-score.

For the sequence AGAATCGG, the binding signal came to 0.375 E-score.

The sequence ACAGAAGT showed a binding signal of -0.0605 E-score.

Sequence AGGGATAT displayed a binding signal of 0.353 E-score.

As for ATGCAGAA, the binding signal worked out at 0.16 E-score.

Take ACCCTGAT: the binding signal turned out to be 0.0699 E-score.

For ACTTCTGG, the binding signal is -0.119 E-score.

ACCACGTC yielded a binding signal of -0.204 E-score.

The sequence CAACGCTC gave a binding signal of -0.251 E-score.

As for AGGGTCAG, the binding signal is -0.165 E-score.

In turn, AAACGGTT returned a binding signal of -0.148 E-score.

CAAAGTGG gave a binding signal of -0.114 E-score.

The sequence CAGAATAC displayed a binding signal of 0.0173 E-score.

ACCTAACC yielded a binding signal of -0.0544 E-score.

Sequence ATTTTGAG came in with a binding signal of 0.194 E-score.

The sequence ACAATAGG registered a binding signal of 0.0112 E-score.

Turning to ACATTAGT, the binding signal was -0.0066 E-score.

As for AATTTTTG, the binding signal was determined as 0.0437 E-score.

Consider AAGATGCG, for which the binding signal is -0.00465 E-score.

CACTTACA had a binding signal of 0.0237 E-score.

Turning to AATGGGTG, the binding signal is 0.0229 E-score.

ACTCCAGT: the binding signal was -0.142 E-score.

Sequence ATGCCCCG had a binding signal of -0.025 E-score.

For the sequence CAACGAAG, the binding signal was -0.0482 E-score.

With ACCACTGA, the binding signal came out at 0.0673 E-score.

With AGACCTAC, the binding signal is -0.133 E-score.

The sequence AGGTACAG registered a binding signal of -0.259 E-score.

CACGGAGC registered a binding signal of -0.182 E-score.

Sequence CAGCCCTC returned a binding signal of -0.207 E-score.

Turning to AAGTTAGG, the binding signal was determined as 0.0264 E-score.

In turn, ACCTGCGG came in with a binding signal of -0.226 E-score.

On to AGTATCGG, for which the binding signal worked out at 0.202 E-score.

In the case of ATAGTTAA, the binding signal is 0.0626 E-score.

Consider ACATCGAG, for which the binding signal was -0.0166 E-score.

Consider AAGGAAAC, for which the binding signal was -0.129 E-score.

The sequence ACTAGATC came in with a binding signal of 0.245 E-score.

Turning to ACAAGCAA, the binding signal was found to be 0.021 E-score.

ACTGAATA: the binding signal came out at 0.204 E-score.

CAAGAGGG yielded a binding signal of -0.222 E-score.

AGCCGTTA gave a binding signal of -0.144 E-score.

In the case of AGTAACAA, the binding signal is -0.0684 E-score.

Consider AGTCTGAG, for which the binding signal is 0.013 E-score.

The sequence ACTCTAAC showed a binding signal of 0.00428 E-score.

For the sequence AGGCCCAC, the binding signal is -0.268 E-score.

Regarding ACTGCACG, the binding signal is -0.0439 E-score.

AGCCATGA: the binding signal was -0.0784 E-score.

As to ACCTTCGC, the binding signal is -0.192 E-score.

Turning to AATGTCCG, the binding signal was -0.189 E-score.

In turn, ACTAATTC gave a binding signal of 0.133 E-score.

In turn, AATGTCCT came in with a binding signal of -0.121 E-score.

Turning to ACGCTCAG, the binding signal is -0.19 E-score.

In turn, ACATAGCT registered a binding signal of -0.0625 E-score.

The sequence AAATACAA displayed a binding signal of 0.125 E-score.

Consider AGCAACTA, for which the binding signal amounted to 0.0222 E-score.

The sequence AGTTAATC gave a binding signal of -0.128 E-score.

Sequence ATGACATC registered a binding signal of 0.0226 E-score.

Regarding CACATGGC, the binding signal was -0.22 E-score.

ATTGGAGC displayed a binding signal of -0.0235 E-score.

AAGACTGG: the binding signal is -0.0231 E-score.

For AGTAATCA, the binding signal came to 0.322 E-score.

Sequence ACCGAGTC returned a binding signal of -0.216 E-score.

On to CACAATTA, for which the binding signal worked out at 0.0986 E-score.

The sequence AAGCGCGA came in with a binding signal of 0.136 E-score.

On to ACGCAACC, for which the binding signal stood at 0.0273 E-score.

The sequence AGTGAACC gave a binding signal of -0.119 E-score.

Regarding ATGAAGTA, the binding signal is -0.175 E-score.

Sequence AATTTCAA returned a binding signal of 0.246 E-score.

AGGTTTAA gave a binding signal of -0.143 E-score.

Turning to AACGAAAT, the binding signal stood at 0.344 E-score.

On to AGCATCCC, for which the binding signal was -0.214 E-score.

Turning to AGATGAAT, the binding signal was 0.0627 E-score.

For the sequence AGTCATAC, the binding signal turned out to be 0.0218 E-score.

AGAAAGAC yielded a binding signal of -0.0251 E-score.

For the sequence AAGTCTTG, the binding signal is -0.143 E-score.

For AAGATAGA, the binding signal stood at 0.0566 E-score.

The sequence CAAGGGCG showed a binding signal of -0.163 E-score.

Sequence ATCGTGTG yielded a binding signal of 0.108 E-score.

As to CACCTTAC, the binding signal was -0.0494 E-score.

With AATATTTA, the binding signal came out at 0.216 E-score.

In turn, CACGGTGG came in with a binding signal of -0.137 E-score.

AAAGACGT yielded a binding signal of 0.0182 E-score.

As for AATGAAGC, the binding signal was -0.12 E-score.

For AAATTCTA, the binding signal was found to be 0.245 E-score.

For CAAGTCCC, the binding signal is -0.118 E-score.

CACGCCGA: the binding signal is -0.00601 E-score.

ACGTCCGA showed a binding signal of -0.236 E-score.

ATGTAGCA: the binding signal is -0.0397 E-score.
